From PubChem BioAssay AID1159614 (National Center for Advancing Translational Sciences (NCATS), 2016)
The whole screen tested about 45,000 compounds, of which about 65 (0.1%) were called active. The call rests on the fitted dose curve; in most records, active means well fitted activation curve with a large enough effect; inconclusive means small, poorly fitted or top-dose-only effect; inactive means no such curve, though single readings can be large or run the other way. This is one part of the list.

molecular target: Galactocerebrosidase (Homo sapiens) (UniProt P54803); experiment: A Novel Cell-Based Assay to Identify Small Molecules for B -Galactocerebrosidase; conditions: 145M-Twi-hGALC-G270D cells (Twitcher mouse brain line with human GALC G270D), HMU-beta-Gal fluorescence, 48 h; series mostly up to 57.5 µM; activation: at the top concentration; further: 0% is about no effect; nearly all actives have a fitted effect of over 65% in size
In short: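 Brain-derived Twitcher mouse 145M-Twi cells stably expressing human GALC-G270D or wild-type GALC, treated live, then residual GALC activity read by fluorescence of HMU-b-Gal substrate (0.1 mM final) in citrate-phosphate buffer pH 5.2 with sodium taurocholate. Signal increase indicates enhancement.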

UniProt P54803, sequence (P54803 whole entry, looked up): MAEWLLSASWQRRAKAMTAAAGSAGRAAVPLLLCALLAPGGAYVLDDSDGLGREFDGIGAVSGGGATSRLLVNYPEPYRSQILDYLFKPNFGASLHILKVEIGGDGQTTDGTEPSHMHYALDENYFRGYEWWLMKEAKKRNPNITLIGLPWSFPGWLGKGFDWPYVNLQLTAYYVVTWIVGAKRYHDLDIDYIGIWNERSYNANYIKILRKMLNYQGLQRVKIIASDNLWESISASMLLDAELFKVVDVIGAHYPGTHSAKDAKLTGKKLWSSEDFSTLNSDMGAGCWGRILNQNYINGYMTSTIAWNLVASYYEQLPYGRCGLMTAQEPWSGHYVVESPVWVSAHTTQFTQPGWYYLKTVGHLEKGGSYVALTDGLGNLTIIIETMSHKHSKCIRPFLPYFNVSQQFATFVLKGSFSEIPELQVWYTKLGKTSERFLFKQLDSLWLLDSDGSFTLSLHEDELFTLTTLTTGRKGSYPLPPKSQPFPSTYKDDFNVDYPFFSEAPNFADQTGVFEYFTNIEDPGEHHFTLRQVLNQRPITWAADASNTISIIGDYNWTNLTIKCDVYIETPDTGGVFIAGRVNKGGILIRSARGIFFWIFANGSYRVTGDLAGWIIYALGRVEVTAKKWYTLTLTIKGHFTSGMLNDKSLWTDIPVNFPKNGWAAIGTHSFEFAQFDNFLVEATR

Structure (SMILES)	activation
CCC(Oc1ccccc1)C(=O)N1CCN(Cc2cc(=O)n3nc(-c4cccc(C)c4)sc3n2)CC1 (stereo not drawn)	inactive: 1.88%
O=C(Nc1ccc(Cl)c(-c2nc3ccccc3o2)c1)c1cccc2c(Cl)cccc12	inactive: -5.85%
COc1ccc(Nc2ccc3cc(S(=O)(=O)N4CCCC4)ccc3n2)cc1OC	inactive: -9.67%
Cc1ccc(CSC2=Nc3ccccc3C3=NC(CCC(=O)NCc4cccs4)C(=O)N23)c(C)c1 (stereo not drawn)	inactive: -11.6%
Cc1ccc(NC(=O)CSc2nncn3c2cc2sccc23)cc1F	inactive: -7.47%
Cc1ccc(-n2c(=O)c3c(c4cc(C)ccc4n3C)n(CC(=O)NCC3CCCO3)c2=O)cc1 (stereo not drawn)	inactive: -8.39%
Cc1ccc(Cl)c(OCC(O)CNC(C)(C)C)c1 (stereo not drawn)	inactive: -9.48%
Cc1ccc(NS(=O)(=O)c2c(C)nc3sccn3c2=O)c(Cl)c1	inactive: -18.9%
COc1cc(Cl)c(NC(=O)CC(C)S(=O)(=O)c2cc3c(cc2C)NC(=O)CO3)c(OC)c1 (stereo not drawn)	inactive: -5.69%
CCC(=O)O[C@H]1[C@H](O[C@@H]2[C@@H](C)[C@H](O[C@H]3C[C@@](C)(OC)[C@@H](O)[C@H](C)O3)[C@@H](C)C(=O)O[C@H](CC)[C@@](C)(O)[C@H](O)[C@@H](C)C(=O)[C@H](C)C[C@@]2(C)O)O[C@H](C)C[C@@H]1N(C)C	inactive: -9.21%
Cc1ccc(-c2nc3n(n2)C(=O)CC(c2ccc(C)cc2)S3)cc1 (stereo not drawn)	inactive: -13.4%
CC(C)c1ccc(NC(=O)c2cc(S(=O)(=O)N3CCc4ccccc4C3)ccc2F)cc1	inactive: -5.6%
CCCCOC(=O)c1ccc(NC2=NS(=O)(=O)c3ccccc32)cc1	inactive: -15.9%
Cc1cccc(NC(=O)CCn2nc(C)c3c(C)n(-c4ccccc4)nc3c2=O)c1C	inactive: -23%
Cc1ccc(NC(=O)CCS(=O)(=O)c2ccc3nc(C)sc3c2)c(C)c1	inactive: 5.97%
Nc1ncnc2c1ncn2[C@@H]1O[C@H](COP(=O)(O)O)[C@@H](O)[C@H]1O	inactive: -10.9%
CCOc1ccc(CN2C(=O)c3ccccc3Sc3ccc(C(=O)NCCCN4CCOCC4)cc32)cc1	inactive: 5.08%
COc1ccc(S(=O)(=O)NCc2ccc3c(c2)CCN3C(C)=O)cc1OC	inactive: -12.4%
Cc1ccc(OCC(=O)N(Cc2nc(-c3ccccc3)no2)C(C)C)cc1C	inactive: -5.33%
Cc1ccc(S(=O)(=O)N2CCCc3cc(NS(=O)(=O)c4ccccc4)ccc32)cc1	inactive: -17.9%
COC(=O)c1ccc([C@H]2Nc3ccc(S(=O)(=O)Nc4ccc(F)cc4)cc3[C@H]3C=CC[C@H]32)cc1	inactive: -7.57%
CCOc1ccc(C(=O)Nc2ccc(NC(=O)c3ccccc3)cc2)cc1Br	inactive: -15.6%
CN(C)c1ncc(C(=O)NCc2ccccc2Cl)cn1	inactive: -10%
COc1ccccc1N1CCN(c2c(CN3CCCC3)c(=O)oc3ccccc23)CC1	inactive: -11.8%

Structure (SMILES)	activation
CCOc1ccc(S(=O)(=O)N(CC(=O)NCCc2ccc(OC)cc2)c2ccccc2)cc1	inactive: 3.47%
O=C(Nc1ccc(Cl)c(Cl)c1)N(Cc1c[nH]c2ccccc12)C1CCCCC1	inactive: -5.24%
COc1ccccc1-c1noc(CSc2nnc(-c3ccccc3)n2-c2ccc(C)c(C)c2)n1	inactive: -12.1%
Cc1cc(C)c(/C=C/c2onc(C)c2S(=O)(=O)N2CCC(C(=O)Nc3cccc(C)c3C)CC2)c(C)c1	inactive: -3.73%
C[N+]12CCC(CC1)C(OC(=O)C(O)(c1ccccc1)c1ccccc1)C2 (stereo not drawn)	inactive: -11.6%
CCOC(=O)CNC(=O)Nc1cc(C(=O)NCc2ccc(C(C)C)cc2)ccc1N1CCCC1	inactive: -20.9%
Cc1ccc2[nH]c(=O)c3cc(C(=O)NCc4cccc(Cl)c4)sc3c2c1	inactive: 5.31%
Cc1cc(OCC(=O)Nc2sc3c(c2C#N)CCC(C)C3)ccc1Cl (stereo not drawn)	inactive: -9.41%
Cc1ccc(S(=O)(=O)N2CCCC2C(=O)Nc2ccc(Br)cc2)cc1 (stereo not drawn)	inactive: -6.36%
CCOc1ccc(C(=O)c2cn(Cc3cccc(OC)c3)c3cc4c(cc3c2=O)OCO4)cc1	inactive: -17.4%
O=C(CSc1ncc(-c2ccc(Cl)cc2)[nH]1)Nc1ccccc1F	inactive: -13.3%
O=C(C1CCCN(S(=O)(=O)c2cccc3nonc23)C1)N1CCN(c2cccc(C(F)(F)F)c2)CC1 (stereo not drawn)	inactive: -35%
CC(=O)c1ccc(NC(=O)CSc2nc(-c3ccccc3C)nc3c2c(=O)n(C)c(=O)n3C)cc1	inactive: -28%
CCOC(=O)c1c(C)oc2nc(C)nc(N(C)Cc3ccccc3)c12	inactive: -11%
Cc1nc2c(-c3ccccc3)c(C)nn2c(C)c1CCC(=O)NCCc1ccccc1	inactive: -31.7%
CC(C)c1ccc(NC(=O)N2CCN(c3ccc(Cl)c(Cl)c3)CC2)cc1	inactive: -9.38%
CCOc1ccc(NC(=O)CSc2nc3c([nH]c4ccccc43)c(=O)n2-c2cc(C)cc(C)c2)cc1	inactive: -21.9%
O=C(COc1cccc(Cl)c1)N1CCC(c2nc3ccccc3o2)CC1	inactive: -18.3%
Cc1cccc(N2CCN(C(=O)c3cnc4c(C)cccn4c3=O)CC2C)c1 (stereo not drawn)	inactive: -1.61%
O=C(NCc1ccccc1Cl)C1CCCN(C(=O)c2cnn(-c3ccc(F)cc3)c2-n2cccc2)C1 (stereo not drawn)	inactive: -27.9%
COc1ccc(NC(=O)CSc2nc3c(oc4ccccc43)c(=O)n2-c2ccccc2)cc1OC	inactive: -9.69%
CCC(C)NC(=O)c1ccc2c(c1)nc1n2CCCCC1 (stereo not drawn)	inactive: -18.9%
CCOC(=O)c1c(C)oc2c1cc(NS(=O)(=O)c1ccc(C)cc1)c1ccccc12	inactive: -6.54%
O=C(NC1CC(=O)N(c2ccc(Cl)cc2)C1)C1CCCC1 (stereo not drawn)	inactive: 1.05%

Structure (SMILES)	activation
Cc1ccc(N2CCN(C(=O)c3c(C)oc4ncnc(N5CCCCC5)c34)CC2)c(C)c1	inactive: -33.4%
CCOc1ccccc1NC(=O)c1cc(S(=O)(=O)N2CCOCC2)cn1C	inactive: -0.889%
O=C(CSc1nc(-c2ccccc2)no1)N1CCN(c2ccccc2)CC1	inactive: -8.53%
O=C1Nc2cc(Cl)ccc2Oc2ccccc21	inactive: -12.5%
CN1CCN(C(=O)c2ccc3c(c2)N(Cc2ccc(F)cc2)C(=O)c2ccccc2S3=O)CC1 (stereo not drawn)	inactive: -6.28%
CCC(=O)N1c2ccccc2C(C)(c2ccccc2)CC1(C)C (stereo not drawn)	inactive: -8.84%
COc1ccc(CCNc2oc(COc3cccc(C)c3)nc2C#N)cc1OC	inactive: -4.84%
Cc1sc2c(c1C)c(=O)n(Cc1ccccc1)c(=O)n2CC(=O)N(C)c1ccccc1	inactive: -13.5%
CCCNC(=O)c1cnn2c(C(F)F)cc(-c3ccccc3)nc12	inactive: -8.76%
CC(C)Oc1ccc(NC(=O)c2cc3ccccc3o2)cc1	inactive: 4.3%
CC1(C)CC(=O)c2cc(-c3nc(-c4ccc(Cl)cc4)cs3)c(=O)[nH]c2C1	inactive: -14.1%
CCN1CCc2c(sc(-n3cccc3)c2C(C)NC(=O)Nc2cc(Cl)c(OC)cc2OC)C1 (stereo not drawn)	inactive: -15.8%
Cc1ccc(NC(=O)c2cc(S(=O)(=O)N3CCCCCC3)ccc2F)cc1F	inactive: -16.3%
CC(=O)c1cccc(NC(=O)CCc2nc3cccnc3n2Cc2cccs2)c1	inactive: -22.9%
CC1=C(/C=C/C(C)=C/C=C/C(C)=C/C(=O)Nc2ccc(O)cc2)C(C)(C)CCC1	inactive: -6.59%
CC(=O)N1CCc2cc(Br)cc(S(=O)(=O)NCCc3ccc(Cl)cc3)c21	inactive: -7.01%
COc1ccc(-c2nc(Cn3c(=O)cc(-c4ccccc4)c4c(C)nn(C)c43)c(C)o2)cc1OC	inactive: -8.97%
CC1CCN(S(=O)(=O)c2ccc3c(ccc(=O)n3CC(=O)NCc3ccc(Cl)cc3)c2)CC1	inactive: -20%
CCOc1ccc(Nc2nc3c(S(=O)(=O)c4ccc(CC)cc4)nnn3c3ccc(Cl)cc23)cc1	inactive: -20.8%
CCNc1nc(NC(C)(C)C)nc(Oc2ccc(=O)n(-c3ccccc3)n2)n1	inactive: 1.82%
CCc1ccccc1N1CC(c2nc3ccccc3n2CCOc2ccc(Cl)c(C)c2)CC1=O (stereo not drawn)	inactive: 9.68%
COc1ccc(Cl)cc1N=C1NC(=O)CC(C(=O)Nc2ccccc2C(F)(F)F)S1 (stereo not drawn)	inactive: -40.7%
COc1ccc(S(=O)(=O)N(CC(=O)Nc2cc(C)cc(C)c2)c2ccc(Cl)cc2)cc1	inactive: 17.2%
CCn1c(C(=O)N2CCC(C(=O)N3CCN(c4ccc(OC)cc4)CC3)CC2)cc2sccc21	inactive: -9.37%

Structure (SMILES)	activation
CN(C)c1ccc(C(=O)Nc2c(C(=O)NC(C)(C)C)oc3ccccc23)cc1	inactive: -24.3%
Cc1cc(C)cc(NC(=O)C(CC(C)C)NC(=O)C2CCCCC2)c1 (stereo not drawn)	inactive: -9.26%
CC(C)Oc1ccc(CNC(=O)c2ccc3nc(C(C)C)oc3c2)cc1	inactive: 3.04%
COc1ccc(CCNc2nc3ccc(C)cc3n3cnnc23)cc1OC	inactive: -8.38%
O=C(c1cccn1-c1nnc(N2CCCCC2)s1)N1CCN(c2ccc(Cl)cc2)CC1	inactive: -18.5%
CCOC(=O)CSc1nc(-c2ccc(F)cc2)cc(C(F)(F)F)c1C#N	inactive: -9.39%
CC(C)(C)C1CCc2c(sc(NC(=O)c3ccccc3F)c2C(=O)NCc2ccco2)C1 (stereo not drawn)	inactive: -15%
Cc1cc(C)cc(C(=O)Nc2cccc(-c3nc4ncccc4o3)c2C)c1	inactive: -3.4%
COc1ccccc1CNC(=O)CCCCn1c(=O)c2ccccc2n(Cc2ccccc2C)c1=O	inactive: 0.182%
CC(=O)c1cccc(NC(=O)c2ccc(Cl)c(S(=O)(=O)N3CCOCC3)c2)c1	inactive: -7.61%
CC(=O)c1c(C)n(-c2ccc(Cl)cc2)c2ccc(OC(=O)COc3ccccc3)cc12	inactive: -19.9%
NC(=O)c1ncn([C@@H]2O[C@H](CO)[C@@H](O)[C@H]2O)c1N	inactive: -4.43%
COc1ccc(-c2nc3scc(CCNS(=O)(=O)c4c(C)cc(C)cc4C)n3n2)cc1OC	inactive: -15.1%
O=C(NCCn1cc(SCc2ccccc2)c2ccccc21)c1cccs1	inactive: 11%
CCc1nn2c(=O)cc(COC(=O)c3ccc4c(c3)OCO4)nc2s1	inactive: -2.58%
CN(Cc1ccccc1)S(=O)(=O)c1nnc(NC(=O)c2ccccc2Cl)s1	inactive: -10.1%
c1ccc(N2CCN(Cc3nnc(-c4ccc5c(c4)OCO5)o3)CC2)cc1	inactive: -25.4%
CCOC(=O)c1cc2c(=O)n3ccccc3nc2n(CCOC)c1=NC(=O)c1cc2ccccc2o1	inactive: -14%
COc1ccc(C2=NS(=O)(=O)N(C)C(C(=O)Nc3ccc(OC(F)(F)F)cc3)=C2)cc1	inactive: -8.78%
CCOC(=O)c1noc2nc(C)n(Cc3cccc(C#N)c3)c(=O)c12	inactive: -28.5%
COc1ccc(CCNC(=O)c2ccc3c(c2)nc2n3CCC(C)C2)cc1OC (stereo not drawn)	inactive: -25.1%
